Laboratory results taken from the supplement of paper PMC7125110.
± gives the standard error. Variants at the background level are over-represented here.

B1: glmS ribozyme (parent)
chain: AUAAAAGCGCCAGAACUACAGAAAUGUAGUUGACGAGGAGGAGGUUUAUCGAAUUUUCGGCGGAUGCCUCCAAA

What was measured:
Conditions in all cases: with glucosamine-6-phosphate
glucosamine-6-phosphate [1] = variants of: B1; assay: self-cleavage kobs at 640 uM GlcN6P; higher = faster cleavage; RNA array
How it was run: (§1)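 A hybridised Cy3 probe tracked barcoded ribozyme variants, transcribed in situ by E. coli RNA polymerase on sequenced MiSeq chips, at 37 °C. The variants received 40 μM to 10 mM glucosamine-6-phosphate in HEPES/KCl/Mg(OAc)2 buffer. kobs came from decay fits and kcat and KM from weighted Michaelis–Menten fits.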

glucosamine-6-phosphate [2] = variants of: B1; assay: self-cleavage kobs at 2500 uM GlcN6P; higher = faster cleavage; RNA array
How it was run: as §1

glucosamine-6-phosphate [3] = variants of: B1; assay: self-cleavage kobs at 10000 uM GlcN6P; higher = faster cleavage; RNA array
How it was run: as §1

glucosamine-6-phosphate [4] = variants of: B1; assay: self-cleavage kobs at 160 uM GlcN6P; higher = faster cleavage; RNA array
How it was run: as §1

Variant | self-cleavage kobs at 640 uM GlcN6P (glucosamine-6-phosphate [1]) [s⁻¹] | self-cleavage kobs at 2500 uM GlcN6P (glucosamine-6-phosphate [2]) [s⁻¹] | self-cleavage kobs at 10000 uM GlcN6P (glucosamine-6-phosphate [3]) [s⁻¹] | self-cleavage kobs at 160 uM GlcN6P (glucosamine-6-phosphate [4]) [s⁻¹]
G32U G35U G51A C71G | < 1e-05 | < 1e-05 | – | –
G40C A52G | 2.38e-05 ± 8.1e-06 | 0.000102 ± 1.5e-05 | 0.000133 ± 1.5e-05 | –
A36U G63C C67U | < 1e-05 | < 1e-05 | – | < 1e-05
A36U G44U U56G | < 1e-05 | – | – | –
A33U U54C G59U G66C | < 1e-05 | – | – | –
U31C G41U G60U | < 1e-05 | – | – | –
A36G G40U G66A | < 1e-05 | < 1e-05 | – | –
G35U G43C U69G | < 1e-05 | < 1e-05 | – | –
G35C A39C G41U | < 1e-05 | < 1e-05 | – | < 1e-05
G37U C50U G59U G60U | < 1e-05 | – | – | –
A33U A48G C67A | < 1e-05 | – | – | –
A33C A42U C68G | < 1e-05 | < 1e-05 | – | –
C34A G51U C61A G63C | < 1e-05 | – | – | –
G32A A42U U45C | < 1e-05 | – | – | –
G32A C34G | < 1e-05 | < 1e-05 | < 1e-05 | –
G32C G37U G38C | < 1e-05 | < 1e-05 | – | –
G35U U69G | < 1e-05 | < 1e-05 | – | –
C34A U57A | < 1e-05 | < 1e-05 | < 1e-05 | –
G32C G40U A42G C70U | < 1e-05 | < 1e-05 | – | < 1e-05
A39C G40C A52G | < 1e-05 | – | – | < 1e-05

Variant | self-cleavage kobs at 640 uM GlcN6P (glucosamine-6-phosphate [1]) [s⁻¹] | self-cleavage kobs at 2500 uM GlcN6P (glucosamine-6-phosphate [2]) [s⁻¹] | self-cleavage kobs at 10000 uM GlcN6P (glucosamine-6-phosphate [3]) [s⁻¹] | self-cleavage kobs at 160 uM GlcN6P (glucosamine-6-phosphate [4]) [s⁻¹]
A39U U69G | 4.85e-05 ± 1.5e-05 | 4.76e-05 ± 1.3e-05 | 7.29e-05 ± 1.5e-05 | –
A33C G35A | < 1e-05 | < 1e-05 | < 1e-05 | < 1e-05
G32U A33U G35U | < 1e-05 | < 1e-05 | – | –
A36C A48U A53C C58A G59C G60A G66C | < 1e-05 | – | – | –
G37C U65C | < 1e-05 | < 1e-05 | – | < 1e-05
U31A A42U G59U | < 1e-05 | – | – | –
U31C A33C G63U C67G | < 1e-05 | – | – | < 1e-05
A33U U57G | < 1e-05 | – | – | –
A39C U55C G60U C67U C68U | < 1e-05 | < 1e-05 | < 1e-05 | –
G35A A52C C58G G63U U65A | < 1e-05 | < 1e-05 | – | < 1e-05
G41U U57A | < 1e-05 | < 1e-05 | – | –
A36U A53U U65A | < 1e-05 | < 1e-05 | – | –
A36U U49C U65A C71U | < 1e-05 | – | – | –
A39U A64C | 5.07e-05 ± 7e-06 | 9.58e-05 ± 1.3e-05 | 0.00021 ± 1.9e-05 | –
C34U C70U | < 1e-05 | – | – | < 1e-05
G35A G40U C70A | < 1e-05 | – | – | –
C34A A42U U55C G60C C71A | < 1e-05 | – | – | –
A33U C58G | < 1e-05 | < 1e-05 | – | –
G32A G40A C50U G59C G63A U69A | < 1e-05 | < 1e-05 | – | –
G38A U46C U54A G59U | < 1e-05 | < 1e-05 | – | –

Variant | self-cleavage kobs at 640 uM GlcN6P (glucosamine-6-phosphate [1]) [s⁻¹] | self-cleavage kobs at 2500 uM GlcN6P (glucosamine-6-phosphate [2]) [s⁻¹] | self-cleavage kobs at 10000 uM GlcN6P (glucosamine-6-phosphate [3]) [s⁻¹] | self-cleavage kobs at 160 uM GlcN6P (glucosamine-6-phosphate [4]) [s⁻¹]
A36C G60U U69G | < 1e-05 | – | – | –
G37C U46C G63U | < 1e-05 | – | – | –
G32A C34G G38C C68U | < 1e-05 | – | – | < 1e-05
G35U G41U A42U G43A A48G U57C | < 1e-05 | – | – | –
C34U U54A U69G | 0.000598 ± 0.0002 | 0.000128 ± 4.7e-05 | 0.000125 ± 3.4e-05 | 0.000126 ± 4.6e-05
G32U G43A | < 1e-05 | < 1e-05 | < 1e-05 | < 1e-05
U31G C50U U65C | < 1e-05 | – | – | –
G35A U54C | < 1e-05 | – | < 1e-05 | < 1e-05
G35A A42G C50A G60U | < 1e-05 | – | – | –
G35C G41A U47A C67G | < 1e-05 | – | – | –
A39U G41U G63U | < 1e-05 | – | – | < 1e-05
G38U G40U A53C C61G A64G C68A | < 1e-05 | – | – | < 1e-05
A36G A52U U57A | < 1e-05 | < 1e-05 | – | –
C34A U45A C71A | < 1e-05 | – | – | –
A33C U65C | < 1e-05 | < 1e-05 | – | –
A39G G60U A64C C68A C71U | < 1e-05 | – | – | –
U31C G66A C68A U69G | 7.97e-05 ± 4e-05 | 4.91e-05 ± 1.6e-05 | – | –
G35C A64C | < 1e-05 | < 1e-05 | < 1e-05 | –
A36U U57A | < 1e-05 | < 1e-05 | – | –
